The other results are listed elsewhere or left out.
What was measured:
Assay in all cases: glycan array binding signal (z-score within array); higher = stronger binding
Conditions in all cases: glycan notation: IUPAC condensed, linker removed
Fuc(a1-2)Gal = target: Fuc(a1-2)Gal
Outline: (§1)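 Negative Z-scores can be read as non-binding. The Z-score is calculated within each array and then averaged across arrays of one protein sequence at different concentrations or buffers and across linkers. Arrays, 3228 in all, were curated from the Consortium for Functional Glycomics database and kept only where the protein sequence was available.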

Fuc(a1-2)Gal(b1-3)GalNAc = target: Fuc(a1-2)Gal(b1-3)GalNAc
Outline: as §1

[1] = target: Fuc(a1-2)Gal(b1-3)GalNAc(b1-3)Gal
Outline: as §1

[2] = target: Fuc(a1-2)Gal(b1-3)GalNAc(b1-3)Gal(a1-4)Gal(b1-4)Glc
Outline: as §1

[3] = target: Fuc(a1-2)Gal(b1-3)GalNAc(b1-4)[Neu5Ac(a2-3)]Gal(b1-4)Glc
Outline: as §1

Fuc(a1-2)Gal(b1-3)GlcNAc = target: Fuc(a1-2)Gal(b1-3)GlcNAc
Outline: as §1

[4] = target: Fuc(a1-2)Gal(b1-3)[Fuc(a1-4)]GlcNAc
Outline: as §1

Fuc(a1-2)Gal(b1-4)Glc = target: Fuc(a1-2)Gal(b1-4)Glc
Outline: as §1

Fuc(a1-2)Gal(b1-4)GlcNAc = target: Fuc(a1-2)Gal(b1-4)GlcNAc
Outline: as §1

[5] = target: Fuc(a1-2)Gal(b1-4)GlcNAc(b1-3)Gal(b1-4)GlcNAc
Outline: as §1

[6] = target: Fuc(a1-2)Gal(b1-4)GlcNAc(b1-3)Gal(b1-4)GlcNAc(b1-3)Gal(b1-4)GlcNAc
Outline: as §1

[7] = target: Fuc(a1-2)Gal(b1-4)[Fuc(a1-3)]GlcNAc
Outline: as §1

Fuc(a1-2)GlcNAc = target: Fuc(a1-2)GlcNAc
Outline: as §1

Fuc(a1-2)[Gal(a1-3)]Gal = target: Fuc(a1-2)[Gal(a1-3)]Gal
Outline: as §1

[8] = target: Fuc(a1-2)[Gal(a1-3)]Gal(b1-4)GlcNAc
Outline: as §1

[9] = target: Fuc(a1-2)[Gal(a1-4)]Gal(b1-4)GlcNAc
Outline: as §1

[10] = target: Fuc(a1-2)[GalNAc(a1-3)]Gal
Outline: as §1

[11] = target: Fuc(a1-2)[GalNAc(a1-3)]Gal(b1-4)GlcNAc
Outline: as §1

[12] = target: Fuc(a1-2)[GalNAc(a1-4)]Gal(b1-4)GlcNAc
Outline: as §1

[13] = target: Fuc(a1-2)[GalNAc(b1-3)]Gal
Outline: as §1

Fuc(a1-3)GlcNAc = target: Fuc(a1-3)GlcNAc
Outline: as §1

[14] = target: Fuc(a1-3)[Gal(b1-4)]GlcNAc
Outline: as §1

[15] = target: Fuc(a1-3)[Gal(b1-4)]GlcNAc(b1-3)Gal(b1-4)[Fuc(a1-3)]GlcNAc
Outline: as §1

[16] = target: Fuc(a1-3)[Gal(b1-4)]GlcNAc(b1-3)Gal(b1-4)[Fuc(a1-3)]GlcNAc(b1-3)Gal(b1-4)[Fuc(a1-3)]GlcNAc
Outline: as §1

[17] = target: Fuc(a1-3)[Gal3S(b1-4)]GlcNAc
Outline: as §1

Fuc(b1-3)GlcNAc = target: Fuc(b1-3)GlcNAc
Outline: as §1

Gal(a1-2)Gal = target: Gal(a1-2)Gal
Outline: as §1

Gal(a1-3)Gal = target: Gal(a1-3)Gal
Outline: as §1

Gal(a1-3)Gal(b1-4)Glc = target: Gal(a1-3)Gal(b1-4)Glc
Outline: as §1

Gal(a1-3)Gal(b1-4)GlcNAc = target: Gal(a1-3)Gal(b1-4)GlcNAc
Outline: as §1

[18] = target: Gal(a1-3)Gal(b1-4)[Fuc(a1-3)]GlcNAc
Outline: as §1

Gal(a1-3)GalNAc = target: Gal(a1-3)GalNAc
Outline: as §1

[19] = target: Gal(a1-3)[Gal(a1-4)]Gal(b1-4)GlcNAc
Outline: as §1

Gal(a1-4)Gal(b1-4)Glc = target: Gal(a1-4)Gal(b1-4)Glc
Outline: as §1

Gal(a1-4)Gal(b1-4)GlcNAc = target: Gal(a1-4)Gal(b1-4)GlcNAc
Outline: as §1

Gal(a1-4)GlcNAc = target: Gal(a1-4)GlcNAc
Outline: as §1

Gal(a1-6)Glc = target: Gal(a1-6)Glc
Outline: as §1

Gal(b1-2)Gal = target: Gal(b1-2)Gal
Outline: as §1

Gal(b1-3)Gal = target: Gal(b1-3)Gal
Outline: as §1

Gal(b1-3)GalNAc = target: Gal(b1-3)GalNAc
Outline: as §1

[20] = target: Gal(b1-3)GalNAc(b1-4)Gal(b1-4)Glc
Outline: as §1

[21] = target: Gal(b1-3)GalNAc(b1-4)[Neu5Ac(a2-3)]Gal(b1-4)Glc
Outline: as §1

Gal(b1-3)GlcNAc = target: Gal(b1-3)GlcNAc
Outline: as §1

[22] = target: Gal(b1-3)GlcNAc(b1-3)Gal(b1-4)Glc
Outline: as §1

[23] = target: Gal(b1-3)[Fuc(a1-4)]GlcNAc
Outline: as §1

[24] = target: Gal(b1-3)[GlcNAc(b1-6)]GalNAc
Outline: as §1

[25] = target: Gal(b1-3)[Neu5Ac(a2-6)]GalNAc
Outline: as §1

[26] = target: Gal(b1-3)[Neu5Ac(a2-6)]GlcNAc(b1-4)Gal(b1-4)Glc
Outline: as §1

[27] = target: Gal(b1-3)[Neu5Ac(b2-6)]GalNAc
Outline: as §1

[28] = target: Gal(b1-4)GalNAc(a1-3)[Fuc(a1-2)]Gal(b1-4)GlcNAc
Outline: as §1

Gal(b1-4)Glc = target: Gal(b1-4)Glc
Outline: as §1

Gal(b1-4)Glc6S = target: Gal(b1-4)Glc6S
Outline: as §1

Gal(b1-4)GlcNAc = target: Gal(b1-4)GlcNAc
Outline: as §1

[29] = target: Gal(b1-4)GlcNAc(b1-3)Gal(b1-4)Glc
Outline: as §1

[30] = target: Gal(b1-4)GlcNAc(b1-3)Gal(b1-4)GlcNAc
Outline: as §1

[31] = target: Gal(b1-4)GlcNAc(b1-3)Gal(b1-4)GlcNAc(b1-3)Gal(b1-4)GlcNAc
Outline: as §1

[32] = target: Gal(b1-4)GlcNAc(b1-3)Gal(b1-4)[Fuc(a1-3)]GlcNAc(b1-3)Gal(b1-4)[Fuc(a1-3)]GlcNAc
Outline: as §1

[33] = target: Gal(b1-4)GlcNAc(b1-3)GalNAc
Outline: as §1

[34] = target: Gal(b1-4)GlcNAc(b1-3)[Gal(b1-4)GlcNAc(b1-6)]GalNAc
Outline: as §1

[35] = target: Gal(b1-4)GlcNAc(b1-6)GalNAc
Outline: as §1

B1: RegIIIgamma (Mus musculus), O09049 (protein)
chain: MLPRITITIMSWMLLSCLMLLSQVQGEVAKKDAPSSRSSCPKGSRAYGSYCYALFSVSKNWYDADMACQKRPSGHLVSVLSGAEASFLSSMIKSSGNSGQYVWIGLHDPTLGYEPNRGGWEWSNADVMNYINWETNPSSSSGNHCGTLSRASGFLKWRENYCNLELPYVCKFKA
- glycan array binding signal (z-score) (Fuc(a1-2)Gal): -0.255
- glycan array binding signal (z-score) (Fuc(a1-2)Gal(b1-3)GalNAc): -0.245
- glycan array binding signal (z-score) [1]: 0.23
- glycan array binding signal (z-score) [2]: -0.221
- glycan array binding signal (z-score) [3]: -0.104
- glycan array binding signal (z-score) (Fuc(a1-2)Gal(b1-3)GlcNAc): -0.26
- glycan array binding signal (z-score) [4]: -0.211
- glycan array binding signal (z-score) (Fuc(a1-2)Gal(b1-4)Glc): -0.27
- glycan array binding signal (z-score) (Fuc(a1-2)Gal(b1-4)GlcNAc): -0.26
- glycan array binding signal (z-score) [5]: -0.226
- glycan array binding signal (z-score) [6]: 0.632
- glycan array binding signal (z-score) [7]: -0.246
- glycan array binding signal (z-score) (Fuc(a1-2)GlcNAc): -0.261
- glycan array binding signal (z-score) (Fuc(a1-2)[Gal(a1-3)]Gal): -0.293
- glycan array binding signal (z-score) [8]: -0.269
- glycan array binding signal (z-score) [9]: -0.235
- glycan array binding signal (z-score) [10]: -0.258
- glycan array binding signal (z-score) [11]: -0.256
- glycan array binding signal (z-score) [12]: 0.006
- glycan array binding signal (z-score) [13]: -0.266
- glycan array binding signal (z-score) (Fuc(a1-3)GlcNAc): -0.264
- glycan array binding signal (z-score) [14]: 0.137
- glycan array binding signal (z-score) [15]: 0.002
- glycan array binding signal (z-score) [16]: -0.232
- glycan array binding signal (z-score) [17]: -0.124
- glycan array binding signal (z-score) (Fuc(b1-3)GlcNAc): 0.104
- glycan array binding signal (z-score) (Gal(a1-2)Gal): -0.292
- glycan array binding signal (z-score) (Gal(a1-3)Gal): -0.258
- glycan array binding signal (z-score) (Gal(a1-3)Gal(b1-4)Glc): -0.236
- glycan array binding signal (z-score) (Gal(a1-3)Gal(b1-4)GlcNAc): -0.232
- glycan array binding signal (z-score) [18]: -0.233
- glycan array binding signal (z-score) (Gal(a1-3)GalNAc): -0.258
- glycan array binding signal (z-score) [19]: 0.491
- glycan array binding signal (z-score) (Gal(a1-4)Gal(b1-4)Glc): -0.248
- glycan array binding signal (z-score) (Gal(a1-4)Gal(b1-4)GlcNAc): -0.259
- glycan array binding signal (z-score) (Gal(a1-4)GlcNAc): -0.256
- glycan array binding signal (z-score) (Gal(a1-6)Glc): -0.148
- glycan array binding signal (z-score) (Gal(b1-2)Gal): -0.267
- glycan array binding signal (z-score) (Gal(b1-3)Gal): -0.237
- glycan array binding signal (z-score) (Gal(b1-3)GalNAc): -0.26
- glycan array binding signal (z-score) [20]: -0.258
- glycan array binding signal (z-score) [21]: -0.196
- glycan array binding signal (z-score) (Gal(b1-3)GlcNAc): -0.265
- glycan array binding signal (z-score) [22]: -0.266
- glycan array binding signal (z-score) [23]: -0.282
- glycan array binding signal (z-score) [24]: -0.278
- glycan array binding signal (z-score) [25]: -0.252
- glycan array binding signal (z-score) [26]: -0.134
- glycan array binding signal (z-score) [27]: -0.165
- glycan array binding signal (z-score) [28]: -0.228
- glycan array binding signal (z-score) (Gal(b1-4)Glc): -0.171
- glycan array binding signal (z-score) (Gal(b1-4)Glc6S): -0.126
- glycan array binding signal (z-score) (Gal(b1-4)GlcNAc): -0.268
- glycan array binding signal (z-score) [29]: -0.239
- glycan array binding signal (z-score) [30]: -0.279
- glycan array binding signal (z-score) [31]: -0.17
- glycan array binding signal (z-score) [32]: -0.183
- glycan array binding signal (z-score) [33]: -0.256
- glycan array binding signal (z-score) [34]: -0.284
- glycan array binding signal (z-score) [35]: -0.276

Source: the supplement of paper PMC8728848
